Consider one molecule from patent publication US20130336951A1 (CENTRE FOR ADDICTION AND MENTAL HEALTH, published 2013).

The target of assay [1] is Apoptosis inducing factor (AIF) from rat hippocampal extracts (rat, UniProt Q9JM53 102-612, limits assumed). The assay can be described thus: GST pull-down, Western blot for AIF. For orientation: Immunoblotting shows a protein as a band on a membrane.
For assay [2], the target named is [35S]-GAPDH probe (in vitro translated, [35S]-methionine labelled GAPDH) (Homo sapiens, UniProt P04406 1-335, limits assumed, [35S]-methionine labelled). Put plainly: in vitro binding assay (blot overlay), FIG. 5C.

UniProt Q9JM53, sequence (Q9JM53 102-612 limits assumed): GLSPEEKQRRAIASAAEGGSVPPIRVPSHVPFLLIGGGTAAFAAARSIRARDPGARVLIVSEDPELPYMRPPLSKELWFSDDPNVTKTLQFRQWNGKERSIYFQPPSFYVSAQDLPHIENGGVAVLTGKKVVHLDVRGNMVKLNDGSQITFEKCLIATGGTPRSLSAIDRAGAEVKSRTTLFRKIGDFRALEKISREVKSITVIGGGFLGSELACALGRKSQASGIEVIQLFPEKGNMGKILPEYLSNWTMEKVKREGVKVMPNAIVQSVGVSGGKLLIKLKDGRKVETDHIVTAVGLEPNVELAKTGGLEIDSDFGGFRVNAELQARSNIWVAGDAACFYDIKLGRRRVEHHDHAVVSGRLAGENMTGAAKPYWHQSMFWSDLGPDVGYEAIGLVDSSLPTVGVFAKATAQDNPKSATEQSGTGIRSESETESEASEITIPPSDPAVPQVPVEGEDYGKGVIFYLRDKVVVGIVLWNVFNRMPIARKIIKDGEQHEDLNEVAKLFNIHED

B1: GST alone (other)
chain: not shown
notes: Negative control; also called GST peptide
As for B1, the binding result in assay [1] and in assay [2] was “no binding” in each case.
